Assay in all cases: two-hybrid; … GAL4 Two-Hybrid System 3 (pGBKT7 bait, pGADT7 prey) in AH109 yeast; colonies from -Leu/-Trp plates streaked on high stringency -Ade/-His/-Leu/-Trp plates, 30 °C for up to 5 days, scored for growth
Experiment [1] concerns the target T1, Drosophila lamin Dm0 (Drosophila melanogaster) (UniProt P08928).
T1 sequence: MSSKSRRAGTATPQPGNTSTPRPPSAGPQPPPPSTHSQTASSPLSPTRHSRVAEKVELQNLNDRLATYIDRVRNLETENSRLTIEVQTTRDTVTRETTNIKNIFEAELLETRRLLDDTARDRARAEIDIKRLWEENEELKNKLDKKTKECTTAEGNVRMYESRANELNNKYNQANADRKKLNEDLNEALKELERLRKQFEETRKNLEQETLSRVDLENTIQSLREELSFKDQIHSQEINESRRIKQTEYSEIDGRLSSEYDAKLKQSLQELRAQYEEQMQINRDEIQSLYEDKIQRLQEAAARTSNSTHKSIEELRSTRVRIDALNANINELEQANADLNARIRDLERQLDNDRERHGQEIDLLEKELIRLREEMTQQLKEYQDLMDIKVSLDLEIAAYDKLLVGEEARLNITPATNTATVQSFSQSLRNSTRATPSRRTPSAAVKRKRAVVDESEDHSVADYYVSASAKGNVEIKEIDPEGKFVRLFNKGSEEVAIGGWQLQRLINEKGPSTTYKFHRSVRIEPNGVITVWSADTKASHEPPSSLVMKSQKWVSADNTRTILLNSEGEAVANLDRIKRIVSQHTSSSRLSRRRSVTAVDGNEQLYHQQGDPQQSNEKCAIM

For experiment [2], the target named is T2, Drosophila Lamin C (Drosophila melanogaster) (UniProt Q03427).
T2 sequence: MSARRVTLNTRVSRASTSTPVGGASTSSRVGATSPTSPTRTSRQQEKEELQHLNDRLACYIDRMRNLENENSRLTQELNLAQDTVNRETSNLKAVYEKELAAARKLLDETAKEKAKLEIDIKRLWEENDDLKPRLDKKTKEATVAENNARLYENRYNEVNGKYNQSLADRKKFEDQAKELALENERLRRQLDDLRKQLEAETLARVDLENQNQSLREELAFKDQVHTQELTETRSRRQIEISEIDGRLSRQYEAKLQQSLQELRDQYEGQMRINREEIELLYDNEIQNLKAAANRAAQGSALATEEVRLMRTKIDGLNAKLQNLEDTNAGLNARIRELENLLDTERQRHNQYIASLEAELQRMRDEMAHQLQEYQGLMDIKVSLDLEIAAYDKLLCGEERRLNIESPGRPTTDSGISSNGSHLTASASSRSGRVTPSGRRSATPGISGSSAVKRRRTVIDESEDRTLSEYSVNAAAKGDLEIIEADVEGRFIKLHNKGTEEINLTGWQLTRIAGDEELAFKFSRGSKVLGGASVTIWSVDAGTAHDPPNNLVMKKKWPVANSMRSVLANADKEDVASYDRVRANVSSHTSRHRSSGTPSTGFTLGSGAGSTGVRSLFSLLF

Experiment [3] addresses T3, human emerin (human), P50402.
T3 chain: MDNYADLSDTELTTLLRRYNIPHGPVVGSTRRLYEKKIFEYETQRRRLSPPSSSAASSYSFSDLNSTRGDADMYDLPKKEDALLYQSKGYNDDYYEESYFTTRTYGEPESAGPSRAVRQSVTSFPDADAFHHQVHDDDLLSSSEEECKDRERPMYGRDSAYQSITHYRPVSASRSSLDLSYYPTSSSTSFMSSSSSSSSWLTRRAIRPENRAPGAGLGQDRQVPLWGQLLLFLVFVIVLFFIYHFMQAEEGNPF
The following applies: remark: other sources report otherwise.

In the next experiment the target is T4, human emerin (human) (UniProt P50402).
T4 sequence: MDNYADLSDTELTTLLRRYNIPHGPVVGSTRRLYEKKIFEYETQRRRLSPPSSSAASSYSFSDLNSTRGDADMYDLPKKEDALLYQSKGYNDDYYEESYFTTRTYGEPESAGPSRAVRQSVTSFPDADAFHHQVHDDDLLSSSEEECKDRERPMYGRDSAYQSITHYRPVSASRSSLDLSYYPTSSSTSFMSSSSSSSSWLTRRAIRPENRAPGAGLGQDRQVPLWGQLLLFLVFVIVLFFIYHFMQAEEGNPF

These are yes or no findings as the source states them, for the method shown. Some entries that bind do so weakly or less than the wild type.

Consider “human Lamin C (from UniProt P02545-2 1-572)”, for which the binding entry in experiment [1] and in experiment [2] was “binds” in each case.
Regarding “human Lamin A (from UniProt P02545 1-664)”, the binding entry in experiment [1] and in experiment [2] was “binds” in each case.

B1: human Lamin C, P02545-2 1-572 (protein)
chain: METPSQRRATRSGAQASSTPLSPTRITRLQEKEDLQELNDRLAVYIDRVRSLETENAGLRLRITESEEVVSREVSGIKAAYEAELGDARKTLDSVAKERARLQLELSKVREEFKELKARNTKKEGDLIAAQARLKDLEALLNSKEAALSTALSEKRTLEGELHDLRGQVAKLEAALGEAKKQLQDEMLRRVDAENRLQTMKEELDFQKNIYSEELRETKRRHETRLVEIDNGKQREFESRLADALQELRAQHEDQVEQYKKELEKTYSAKLDNARQSAERNSNLVGAAHEELQQSRIRIDSLSAQLSQLQKQLAAKEAKLRDLEDSLARERDTSRRLLAEKEREMAEMRARMQQQLDEYQELLDIKLALDMEIHAYRKLLEGEEERLRLSPSPTSQRSRGRASSHSSQTQGGGSVTKKRKLESTESRSSFSQHARTSGRVAVEEVDEEGKFVRLRNKSNEDQSMGNWQIKRQNGDDPLLTYRFPPKFTLKAGQVVTIWAAGAGATHSPPTDLVWKAQNTWGCGNSLRTALINSTGEEVAMRKLVRSVTVVEDDEDEDGDDLLHHHHVSGSRR
In the case of B1, the binding entry in experiment [3] was “no binding”.

B2: Drosophila Lamin C (protein, UniProt Q03427 1-621)
chain: MSARRVTLNTRVSRASTSTPVGGASTSSRVGATSPTSPTRTSRQQEKEELQHLNDRLACYIDRMRNLENENSRLTQELNLAQDTVNRETSNLKAVYEKELAAARKLLDETAKEKAKLEIDIKRLWEENDDLKPRLDKKTKEATVAENNARLYENRYNEVNGKYNQSLADRKKFEDQAKELALENERLRRQLDDLRKQLEAETLARVDLENQNQSLREELAFKDQVHTQELTETRSRRQIEISEIDGRLSRQYEAKLQQSLQELRDQYEGQMRINREEIELLYDNEIQNLKAAANRAAQGSALATEEVRLMRTKIDGLNAKLQNLEDTNAGLNARIRELENLLDTERQRHNQYIASLEAELQRMRDEMAHQLQEYQGLMDIKVSLDLEIAAYDKLLCGEERRLNIESPGRPTTDSGISSNGSHLTASASSRSGRVTPSGRRSATPGISGSSAVKRRRTVIDESEDRTLSEYSVNAAAKGDLEIIEADVEGRFIKLHNKGTEEINLTGWQLTRIAGDEELAFKFSRGSKVLGGASVTIWSVDAGTAHDPPNNLVMKKKWPVANSMRSVLANADKEDVASYDRVRANVSSHTSRHRSSGTPSTGFTLGSGAGSTGVRSLFSLLF
On to B2, for which the binding result in the experiment with human emerin (human) is “no binding”.

B3: Drosophila Barrier-to-Autointegration Factor (protein, UniProt Q9VLU0 1-90)
chain: MSGTSQKHRNFVAEPMGNKSVTELAGIGETLGGRLKDAGFDMAYTVLGQYLVLKKDEELFKDWMKEVCHASSKQASDCYNCLNDWCEEFL
As to B3, in the experiment with human emerin (human), the binding result was “binds”.

B4: human Lamin B2 (protein, UniProt Q03252 1-620)
chain: MSPPSPGRRREQRRPRAAATMATPLPGRAGGPATPLSPTRLSRLQEKEELRELNDRLAHYIDRVRALELENDRLLLKISEKEEVTTREVSGIKALYESELADARRVLDETARERARLQIEIGKLRAELDEVNKSAKKREGELTVAQGRVKDLESLFHRSEVELAAALSDKRGLESDVAELRAQLAKAEDGHAVAKKQLEKETLMRVDLENRCQSLQEELDFRKSVFEEEVRETRRRHERRLVEVDSSRQQEYDFKMAQALEELRSQHDEQVRLYKLELEQTYQAKLDSAKLSSDQNDKAASAAREELKEARMRLESLSYQLSGLQKQASAAEDRIRELEEAMAGERDKFRKMLDAKEQEMTEMRDVMQQQLAEYQELLDVKLALDMEINAYRKLLEGEEERLKLSPSPSSRVTVSRATSSSSGSLSATGRLGRSKRKRLEVEEPLGSGPSVLGTGTGGSGGFHLAQQASASGSVSIEEIDLEGKFVQLKNNSDKDQSLGNWRIKRQVLEGEEIAYKFTPKYILRAGQMVTVWAAGAGVAHSPPSTLVWKGQSSWGTGESFRTVLVNADGEEVAMRTVKKSSVMRENENGEEEEEEAEFGEEDLFHQQGDPRTTSRGCYVM
On to B4, for which the binding result (in experiment [1]; in the experiment with human emerin (human); in experiment [2]) was “binds” each time.

B5: human Lamin A, P02545 1-664 (protein)
chain: METPSQRRATRSGAQASSTPLSPTRITRLQEKEDLQELNDRLAVYIDRVRSLETENAGLRLRITESEEVVSREVSGIKAAYEAELGDARKTLDSVAKERARLQLELSKVREEFKELKARNTKKEGDLIAAQARLKDLEALLNSKEAALSTALSEKRTLEGELHDLRGQVAKLEAALGEAKKQLQDEMLRRVDAENRLQTMKEELDFQKNIYSEELRETKRRHETRLVEIDNGKQREFESRLADALQELRAQHEDQVEQYKKELEKTYSAKLDNARQSAERNSNLVGAAHEELQQSRIRIDSLSAQLSQLQKQLAAKEAKLRDLEDSLARERDTSRRLLAEKEREMAEMRARMQQQLDEYQELLDIKLALDMEIHAYRKLLEGEEERLRLSPSPTSQRSRGRASSHSSQTQGGGSVTKKRKLESTESRSSFSQHARTSGRVAVEEVDEEGKFVRLRNKSNEDQSMGNWQIKRQNGDDPLLTYRFPPKFTLKAGQVVTIWAAGAGATHSPPTDLVWKAQNTWGCGNSLRTALINSTGEEVAMRKLVRSVTVVEDDEDEDGDDLLHHHHGSHCSSSGDPAEYNLRSRTVLCGTCGQPADKASASGSGAQVGGPISSGSSASSVTVTRSYRSVGGSGGGSFGDNLVTRSYLLGNSSPRTQSPQNCSIM
As to B5, the binding entry in experiment [3] is “no binding”.

The record behind these values is PMC2762312.
